# Assay results from article PMC4336329 (PLoS ONE, 2015).
# About 2,200 (0.71%) of roughly 310,000 compounds showed an effect of 50% or more. Effects have a minus sign here. The list shows a part of the results.
# Target: human ether-à-go-go-related gene (hERG) potassium channel (human, UniProt Q12809)
# Test: primary screen, population patch clamp on CHO cells stably expressing hERG
# human ether-à-go-go-related gene (hERG) potassium channel, sequence (Q12809 whole entry, looked up): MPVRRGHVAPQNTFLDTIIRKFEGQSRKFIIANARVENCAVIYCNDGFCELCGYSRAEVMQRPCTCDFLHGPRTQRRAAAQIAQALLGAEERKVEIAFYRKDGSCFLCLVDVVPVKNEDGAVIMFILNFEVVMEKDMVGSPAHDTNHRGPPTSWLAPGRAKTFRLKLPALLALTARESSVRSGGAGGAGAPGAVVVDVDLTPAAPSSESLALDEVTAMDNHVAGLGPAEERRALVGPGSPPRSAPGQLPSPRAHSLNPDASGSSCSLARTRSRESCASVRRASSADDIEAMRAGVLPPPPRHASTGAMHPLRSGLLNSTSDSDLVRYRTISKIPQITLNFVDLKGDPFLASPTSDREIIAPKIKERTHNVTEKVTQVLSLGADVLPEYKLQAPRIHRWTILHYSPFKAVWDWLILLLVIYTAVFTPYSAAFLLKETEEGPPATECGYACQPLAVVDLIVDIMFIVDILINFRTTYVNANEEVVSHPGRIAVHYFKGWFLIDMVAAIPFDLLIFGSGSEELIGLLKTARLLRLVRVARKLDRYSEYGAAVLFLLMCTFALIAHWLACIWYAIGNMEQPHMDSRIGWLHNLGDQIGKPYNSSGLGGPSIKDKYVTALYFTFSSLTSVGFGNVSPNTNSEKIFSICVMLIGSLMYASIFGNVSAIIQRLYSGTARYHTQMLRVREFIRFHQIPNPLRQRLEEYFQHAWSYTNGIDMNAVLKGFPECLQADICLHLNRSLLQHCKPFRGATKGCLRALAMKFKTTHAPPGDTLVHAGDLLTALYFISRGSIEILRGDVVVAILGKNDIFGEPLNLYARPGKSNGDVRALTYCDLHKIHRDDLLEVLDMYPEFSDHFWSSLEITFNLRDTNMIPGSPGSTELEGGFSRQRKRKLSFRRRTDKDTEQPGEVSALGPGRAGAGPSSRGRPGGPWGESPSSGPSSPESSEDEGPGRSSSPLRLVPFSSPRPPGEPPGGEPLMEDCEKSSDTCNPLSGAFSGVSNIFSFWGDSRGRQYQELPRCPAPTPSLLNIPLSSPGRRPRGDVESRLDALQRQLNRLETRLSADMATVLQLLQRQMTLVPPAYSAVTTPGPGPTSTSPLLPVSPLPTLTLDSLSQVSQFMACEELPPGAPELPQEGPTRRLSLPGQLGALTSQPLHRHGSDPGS
row,SMILES,"hERG current change (%, negative = inhibition) at 1uM"
1,CCOc1ccc(C(=O)C(c2ccccc2)N2CCOCC2)cc1.Cl (stereo not shown),3.32%
2,CN1C(=O)C(C)(C)c2cc(S(=O)(=O)N3CCCC3C(=O)NCc3ccc(F)cc3)ccc21 (stereo not shown),11.5%
3,CCOc1ccc(Oc2cc(N)cc([N+](=O)[O-])c2)cc1,-0.25%
4,CC(C)(C)OC(=O)N1CCC[C@H]1c1nnc(SCc2c(F)cccc2Cl)o1,8.57%
5,CCOc1c2ccc(C(=O)NC3CCCc4ccccc43)cc2nn1CC (stereo not shown),16.1%
6,COc1ccc(/C(N)=N/OC(=O)Oc2ccccc2)cc1,12.5%
7,COc1ccc(C(=O)Nc2ccc(S(=O)(=O)NCc3ccco3)cc2)cc1OC,-0.151%
8,Cc1nnc(N/N=C\c2ccc(-c3ccccc3[N+](=O)[O-])o2)n1N,-1.87%
9,O=C(NCCCN1CCc2ccccc2C1)Nc1ccc(Br)cc1,-17.6%
10,Cc1cccc(C)c1NC(=O)CSc1nnc(C)c(=O)[nH]1,6.55%
11,Cc1ccc(C(c2sc3ncnn3c2O)N2CCCCC2)cc1 (stereo not shown),-0.286%
12,Cc1nnc(NC(=O)C(C)Sc2nnc(CNC(=O)c3ccccc3F)n2C)s1 (stereo not shown),-0.155%
13,Cc1c(C(=O)N2CCCCC2)c(S(=O)(=O)N(C)Cc2ccco2)c(C)n1C,1.66%
14,CCCCn1c(-c2cc(Cl)ccc2OC)n[nH]c1=S,15.3%
15,CCC(C)NC(=O)CSc1ccc(S(=O)(=O)N2CCN(Cc3ccccc3)CC2)cn1 (stereo not shown),3.73%
16,CCOc1ccccc1NC(=O)C1CCN(C(=O)c2cccs2)CC1,19.8%
17,O=c1cc[nH]c2ccc(OC(F)(F)F)cc12,12.2%
18,Cc1ccc(OC(=O)NC2CCS(=O)(=O)C2)cc1C (stereo not shown),7.27%
19,Cc1ccc(NC(=O)C2C3CCCCC32)cc1[N+](=O)[O-] (stereo not shown),20.1%
20,Cc1ccc(S(=O)(=O)c2nc(S(C)(=O)=O)sc2N2CCC3(CC2)OCCO3)cc1,-9.73%
21,COc1ccc(CNC(=O)CCn2nc(C)c3c(C)n(-c4ccccc4)nc3c2=O)c(OC)c1,15.2%
22,COc1cc(/C=N/N2CCN(Cc3ccccc3)CC2)cc(OC)c1OC(C)=O,7.04%

row,SMILES,"hERG current change (%, negative = inhibition) at 1uM"
1,COc1ccc(C(=O)/C=C/c2ccc(OC)cc2OC)c(O)c1,4.49%
2,Cn1c(=O)c2c(ncn2CC(=O)OCC(=O)Nc2cccc(Cl)c2)n(C)c1=O,3.85%
3,CCOP(=O)(c1c(F)c(F)c(F)c(F)c1F)C(O)c1ccccc1 (stereo not shown),8.88%
4,CCOC(=O)N1CCN(C(=O)c2ccc(N3C(=O)c4ccccc4C3=O)cc2)CC1,9.84%
5,CCOC(=O)C1CCN(C(=O)CCc2ccc(S(=O)(=O)NCC(C)C)cc2)CC1,15.1%
6,COc1ccc(N2CCN(C(c3cc(OC)ccc3OC)c3nnnn3Cc3ccco3)CC2)cc1.Cl (stereo not shown),6.49%
7,Cc1cccn2cc(CSc3nnc(Nc4ccc(C(C)C)cc4)s3)nc12,10.1%
8,O=[N+]([O-])c1ccc(NC(=S)NCCc2ccccc2)cc1,6.9%
9,Cc1ccc(CN2CCC(CNC(=O)Nc3ccccc3F)CC2)cc1,-27.6%
10,O=C(CSc1nnc(-c2ccco2)n1-c1ccccc1)N1CCOCC1,11.3%
11,CCOC(=O)COn1c(=O)c(-c2ccc(Br)cc2)[n+]([O-])c2ccccc21,11.7%
12,O=C(O)c1ccc(-c2nc(-c3ccc(Cl)c(Cl)c3)cs2)cc1,-6.63%
13,CCN(CCO)c1ccc(N=Nc2cc(C)[nH]n2)cc1,14.7%
14,COc1ccc(C)cc1NC(=O)NC1CCCCCCC1,16.3%
15,CCOc1cc(-c2nnc(NC(=O)C3=COCCO3)o2)cc(OCC)c1OCC,2.83%
16,COc1ccc(NC(=O)CN(C)S(=O)(=O)c2ccccc2)cc1,4.1%
17,CCC1CCCCN1CCCNC(=O)C1CCC(CNS(=O)(=O)c2c(C)cc(C)cc2C)CC1 (stereo not shown),-3.19%
18,CN(Cc1cccc(Cl)c1)C(=O)C1CCC(=O)N(C2CC2)C1 (stereo not shown),22.3%
19,C=CCOc1ccc(-c2nc3c(c(=O)[nH]c(=O)n3CCCC)n2C)cc1OC,21.5%
20,CC(C)(C#N)N([O-])C=C[N+](=O)C(C)(C)C#N,10.3%
21,COc1ccc(Cl)cc1S(=O)(=O)N1CCC(C(=O)NCCc2ccccc2)CC1,11.3%
22,CCc1nc2sc3c(c2c(=O)o1)CCCC3,22.3%

row,SMILES,"hERG current change (%, negative = inhibition) at 1uM"
1,Cc1ccc(S(=O)(=O)NCC(=O)OC(C)C(=O)Nc2ncc(Cl)cc2Cl)cc1 (stereo not shown),-4.54%
2,Cc1nc2c(sc3nc4c(cc32)COC(C)(C)C4)c(=O)n1Cc1ccccc1,3.2%
3,O=C(NC1CC1)C1CSC(c2cccnc2)=N1 (stereo not shown),-8.47%
4,CC(C)Oc1ccc(/C(O)=C2/C(=O)C(=O)N(CCN(C)C)C2c2ccco2)cc1 (stereo not shown),12.6%
5,Cc1c(Cl)cccc1NC(=O)CNC(=O)c1ccccc1F,-0.639%
6,O=C(COC(=O)c1ncc(Cl)c(Cl)c1Cl)NCCc1ccccc1,13.7%
7,Cc1sc2ncn(CC(=O)NCCCOC(C)C)c(=O)c2c1S(=O)(=O)N1CCN(c2ncccn2)CC1,9.15%
8,COc1ccc(C(=O)N/N=C(\C)c2cccc(NC(=O)c3ccc(F)cc3)c2)c(OC)c1,-2.24%
9,COc1ccccc1CNC(=O)[C@@H](NC(=O)C1CCN(C(=O)[C@@H]2CCCN2C(=O)OC(C)(C)C)CC1)C(C)C,13%
10,O=C(NCCC1=CCCCC1)Nc1ccc2nsnc2c1,4.7%
11,COc1ccc2c(-c3ccccc3)cc(=S)[nH]c2c1,12%
12,CCNC(=S)NNC(=O)CSc1nc2ccccc2[nH]1,12.6%
13,O=C(NCCCN1CCOCC1)c1cc(Cl)ccc1Cl,9.18%
14,CCn1c(SCC(=O)Nc2ccc(S(N)(=O)=O)cc2)nnc1-c1cccc(OC)c1,4.73%
15,C/C(=N/NC(=O)c1ccc(Br)o1)c1ccncc1,17.9%
16,Cc1cccc(NC(=O)C2CCCN2C(=O)OCC(C)C)c1C (stereo not shown),9.95%
17,COc1cc(NC(=O)COC(=O)[C@@H]2CCCN2S(=O)(=O)c2ccc(Cl)cc2)cc(OC)c1OC,7.26%
18,CCOC(=O)N1CCN(C(=O)COc2ccc(Cl)cc2C)CC1,4.04%
19,O=C(Cc1ccccc1)Nn1c(O)c(/C=C2\C=Nc3ccccc32)sc1=S,7.77%
20,CCN1CCN(CC(=O)c2ccc(C)cc2)CC1,14.6%
21,CCCCCCn1c(SCCOC)nc2c1c(=O)[nH]c(=O)n2C,-21.6%
22,CC(C)OC(=O)C1=C(N)N2C(=O)CSC2=C(C(=O)OC(C)C)C1,1.7%

row,SMILES,"hERG current change (%, negative = inhibition) at 1uM"
1,CC1(C)C(C=C(Cl)Cl)C1C(=O)N(Cc1cccc(Cl)c1)C1CCS(=O)(=O)C1 (stereo not shown),9.09%
2,COCc1cc(C)nc(SCC(=O)N2CCC(C)CC2)c1C#N,12.3%
3,N#C/C(=C\c1ccc(Cl)cc1)C(=O)NC1CC1,5.51%
4,Cc1cccc(N2C(=N)SCC2=O)c1C,8.9%
5,Cc1cccc(C(=O)NNC(=O)CSc2nnc(C(C)C)n2C)c1,6.45%
6,COc1ccc(NC(=S)NCCc2ccccc2)c(C)c1,13.8%
7,COc1cccc(-c2nc(-c3ccccn3)no2)c1OC,6.56%
8,CCOc1ccccc1/C=N/Nc1nc2c(N)ncnc2n1[C@H]1O[C@@H](CO)[C@H](O)[C@@H]1O,-3.68%
9,O=C(NCc1ccc(F)c(F)c1)C1CCC(=O)N(CC2CCCCC2)C1 (stereo not shown),2.21%
10,O=C(Cc1ccc([N+](=O)[O-])cc1)N1CCN=C1SCc1ccccc1,7.11%
11,CC(C)N1CCN(Cc2cnc(-c3ccccc3)s2)CC1CCO (stereo not shown),3.87%
12,CCOc1cc(N2CCOCC2)c(OCC)cc1NC(=O)C1CC(=O)N(c2ccccc2OCC)C1 (stereo not shown),-1.87%
13,O=C(CN1C(=O)C2(OCCO2)c2ccccc21)c1ccc(Br)cc1,-5.17%
14,CC(=O)c1c(N2CCOCC2)nc(=O)n(-c2ccccc2)c1C,12.6%
15,Cc1cccc(N(C)S(=O)(=O)c2c(C)noc2C)c1,4.02%
16,CS(=O)(=O)N1CCC(C(=O)N2CCN(Cc3ccccc3)CC2)CC1,17.9%
17,CCC(=O)Nc1c(C(=O)Nc2ccc3c(c2)OCCO3)oc2ccccc12,12.3%
18,CC1=C(C)CC(C(=O)Nc2cccc([N+](=O)[O-])c2)C(C(=O)O)C1 (stereo not shown),0.871%
19,O=c1c(Cl)c(N2CCN(S(=O)(=O)c3ccc(F)cc3)CC2)cnn1-c1cccc(Cl)c1,1.66%
20,COC(=O)CN1C(=O)S/C(=C/c2cc(C)n(C)c2C)C1=O,-3.31%
21,CN1C(=O)N(C)C(=O)C2(Cc3cc(NC(=O)c4ccccc4)ccc3N3CCCC32)C1=O (stereo not shown),23.3%
22,CC(=O)c1cccc(NC(=O)CC2S/C(=N/N=C/c3cccs3)NC2=O)c1 (stereo not shown),-3.57%
